From the supplement of paper PMC8813932
Counter-ions that a name gives are not always drawn. ± gives the standard deviation of the averaged measurements. This is one part of the list. Repeats are few or missing, and single values can be far off.

Legend:
Experiment in all cases: log2 surviving fraction relative to plate median (drug vs vehicle, or drug+dl922-947 vs dl922-947 alone); ovarian cancer lines: OVCAR4 is platinum-sensitive while Ov4Cis resists cisplatin and Ov4Carbo carboplatin; higher = more cell survival
Conditions in all cases: compound concentration: 10 uM, 192 h
OVCAR4 = tested on: OVCAR4
Ov4Carbo = tested on: Ov4Carbo
Ov4Cis = tested on: Ov4Cis
[1] = dl922-947 oncolytic adenovirus co-treatment: MOI 10
[2] = dl922-947 oncolytic adenovirus co-treatment: none

Compound	log2 surviving fraction (OVCAR4; [1])	log2 surviving fraction (OVCAR4; [2])	log2 surviving fraction (Ov4Carbo; [1])	log2 surviving fraction (Ov4Carbo; [2])	log2 surviving fraction (Ov4Cis; [1])	log2 surviving fraction (Ov4Cis; [2])
C=C1CC[C@H](O)C/C1=C/C=C1\CCC[C@]2(C)[C@@H]([C@H](C)CCCC(C)C)CC[C@@H]12 [Vitamin D3 (Cholecalciferol)]	-0.446 ± 0.31	-0.603 ± 0.29	0.322	-0.744	0.22	0.138
CN1CCC(=C2c3ccccc3CCc3cccnc32)CC1 [Azatadine dimaleate]	-0.967 ± 0.43	-0.597 ± 0.2	-0.0122	-0.595	-0.58	-0.796
O=c1[nH]cc(F)c(=O)[nH]1 [Adrucil (Fluorouracil)]	-0.279 ± 0.28	0.26 ± 3.7	-0.903	-5.88	-0.351	-2.48
Cc1cc(C(C)(C)C)cc(C)c1CC1=NCCN1 [Xylometazoline HCl]	0.686 ± 0.9	-0.657 ± 2.1	1.05	0.987	-0.569	0.556
Clc1ccc(C(Cn2ccnc2)OCc2ccsc2Cl)c(Cl)c1 (configuration not stated) [Tioconazole]	-1.74 ± 0.69	-2.38 ± 0.41	-2.96	-2.38	-4.17	-1.27
C=C1c2c(Cl)ccc(O)c2C(=O)C2=C(O)[C@]3(O)C(=O)C(C(N)=O)=C(O)[C@@H](N(C)C)[C@@H]3[C@@H](O)[C@H]12.O=C(O)c1cc(S(=O)(=O)O)ccc1O [Meclocycline Sulfosalicylate]	0.878 ± 0.2	0.0839 ± 0.49	-0.00223	-2.1	0.601	-0.0836
O=C(NCCO[N+](=O)[O-])c1cccnc1 [Nicorandil (Ikorel)]	0.131 ± 0.014	-0.00818 ± 0.4	0.735	-0.0749	0.527	0.573
Nc1ccn([C@@H]2O[C@H](CO)[C@@H](O)C2(F)F)c(=O)n1 [Gemcitabine HCl (Gemzar)]	-6 ± 0.97	-5.13 ± 4.7	-6.92	-11.1	-5.36	-7.45
CS(=O)(=O)CCNCc1ccc(-c2ccc3ncnc(Nc4ccc(OCc5cccc(F)c5)c(Cl)c4)c3c2)o1 [Lapatinib Ditosylate (Tykerb)]	0.382 ± 0.15	-1.71 ± 9.3	-4.51	-1.18	-1.84	-0.934
COc1ccc(OC)c(C(O)C(C)N)c1 (configuration not stated) [Methoxamine HCl]	0.383 ± 1.1	-3.11 ± 4.9	0.34	0.687	0.183	-0.327
CO[C@@H]1[C@@H](OC(N)=O)[C@@H](O)[C@H](Oc2ccc3c(O)c(NC(=O)c4ccc(O)c(CC=C(C)C)c4)c(=O)oc3c2C)OC1(C)C [Novobiocin sodium (Albamycin)]	0.799 ± 0.15	0.427 ± 0.55	0.585	0.574	0.211	0.39
CN1CCC(=C2c3ccccc3CCc3sccc32)CC1 [Pizotifen malate]	-1.12 ± 1.2	-0.875 ± 0.54	-2.69	-1.15	-3.35	-1.55
COc1cc(Cc2cnc(N)nc2N)cc(OC)c1OC [Trimethoprim]	0.757 ± 1	0.86 ± 1	1.94	1.22	-0.623	-0.387
O=C(Nc1ccc([N+](=O)[O-])cc1Cl)c1cc(Cl)ccc1O [Niclosamide (Niclocide)]	-8.13 ± 0.23	-9.74 ± 5.5	-6.52	-10.6	-6.27	-12.8
CCC(=O)O[C@]1(C(=O)CCl)[C@@H](C)C[C@H]2[C@@H]3CCC4=CC(=O)C=C[C@]4(C)[C@@]3(F)[C@@H](O)C[C@@]21C [Clobetasol propionate]	0.124 ± 0.87	-1.96 ± 0.23	-0.764	-1.22	0.0633	-1.94
NC(=O)Cc1cccc(C(=O)c2ccccc2)c1N [Nepafenac]	0.873 ± 0.52	3.54 ± 2.3	1.56	2.43	1.03	2.05
CCOc1ccccc1OC(c1ccccc1)C1CNCCO1 (configuration not stated) [Reboxetine mesylate]	-0.676 ± 0.61	-0.509 ± 0.24	-0.307	-0.572	-0.449	0.222
CCCc1cc(C(N)=S)ccn1 [Protionamide (Prothionamide)]	0.374 ± 1.6	-0.47 ± 1.1	0.835	-0.00748	-0.26	-0.639
CC(=O)O[C@H]1C[C@@H]2CC[C@@H]3[C@H](CC[C@@]4(C)[C@H]3C[C@H]([N+]3(C)CCCCC3)[C@@H]4OC(C)=O)[C@@]2(C)C[C@@H]1N1CCCCC1 [Vecuronium Bromide]	0.626 ± 0.83	0.274 ± 0.23	0.43	-0.376	0.356	0.0581
CS(=O)(=O)c1ccc([C@@H](O)[C@@H](CF)NC(=O)C(Cl)Cl)cc1 [Florfenicol]	-0.371 ± 0.62	-0.998 ± 0.39	0.956	-0.683	0.0527	-0.0647
CC1=C(/C=C/C(C)=C/C=C/C(C)=C/C=C/C=C(C)/C=C/C=C(C)/C=C/C2=C(C)CCCC2(C)C)C(C)(C)CCC1 [Beta Carotene]	0.966 ± 0.87	0.00348 ± 1.1	0.368	-0.699	-0.374	0.634
NC(=O)N1c2ccccc2C=Cc2ccccc21 [Carbamazepine (Carbatrol)]	0.533 ± 0.36	-0.123 ± 0.91	-0.0682	-0.409	0.0641	0.251
